Measurements as given in the supplement of paper PMC7826260.
This is one part of the list. Each Rep nickase domain was tested in vitro on the same pool of single strands at 3 µM enzyme and 37 °C for 1 h; the strands have 90 letters, of which the middle is given. Uncut reads are compared with the no-enzyme pool on a log2 scale; the lower, the more was cut; hits are not called. The scaling is to total reads; uncut strands gain when others are lost, and binding without cutting may add a little.

What was measured:
Assay in all cases: uncleaved DNA left, log2 of reads against the no-enzyme library (log2 ratio); higher = less cleavage (more negative = more Rep cleavage of the k-mer); sequences stand for … in CTCGTCCG…ACCGGAGA
[1] = tested on: T1, Rep nickase domain of Muscovy duck circovirus
T1 sequence (protein, residues 1-111, tag omitted): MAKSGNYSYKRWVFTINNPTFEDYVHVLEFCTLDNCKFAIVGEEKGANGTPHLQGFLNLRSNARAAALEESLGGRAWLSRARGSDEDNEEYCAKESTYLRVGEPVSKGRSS
Description: (§1)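 A pool of 90-nt single-stranded DNAs with seven random bases just before the constant AC of the nick site (name = the seven bases) was cut by 3 µM recombinant His6-SUMO-tagged Rep nickase domain (300 nM DNA, 50 mM HEPES pH 8.0, 50 mM NaCl, 1 mM MnCl2, 1 h, 37 °C, three replicates). Uncut DNA was amplified and sequenced.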

[2] = tested on: T2, Rep nickase domain of banana bunchy top virus
T2 sequence (protein, residues 1-94, tag omitted): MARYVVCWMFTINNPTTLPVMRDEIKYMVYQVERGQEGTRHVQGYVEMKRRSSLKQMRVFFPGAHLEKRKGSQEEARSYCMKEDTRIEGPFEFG
Description: as §1

[3] = tested on: T3, Rep nickase domain of cabbage leaf curl virus
T3 sequence (protein, residues 1-116, tag omitted): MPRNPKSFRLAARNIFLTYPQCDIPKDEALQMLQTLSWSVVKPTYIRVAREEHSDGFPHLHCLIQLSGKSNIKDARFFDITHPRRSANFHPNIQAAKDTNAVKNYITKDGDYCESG
Description: as §1

[4] = tested on: T4, Rep nickase domain of chickpea chlorotic dwarf virus
T4 sequence (protein, residues 1-124, tag omitted): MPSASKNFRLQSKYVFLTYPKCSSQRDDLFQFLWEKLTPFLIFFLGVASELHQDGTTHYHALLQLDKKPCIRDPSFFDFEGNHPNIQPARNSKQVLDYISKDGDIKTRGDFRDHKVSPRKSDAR
Description: as §1

[5] = tested on: T5, Rep nickase domain of faba bean necrotic yellows virus
T5 sequence (protein, residues 1-98, tag omitted): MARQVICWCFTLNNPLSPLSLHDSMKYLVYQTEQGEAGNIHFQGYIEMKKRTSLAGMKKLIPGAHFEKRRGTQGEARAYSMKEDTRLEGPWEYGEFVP
Description: as §1

[6] = tested on: T6, Rep nickase domain of maize striate mosaic virus
T6 sequence (protein, residues 1-117, tag omitted): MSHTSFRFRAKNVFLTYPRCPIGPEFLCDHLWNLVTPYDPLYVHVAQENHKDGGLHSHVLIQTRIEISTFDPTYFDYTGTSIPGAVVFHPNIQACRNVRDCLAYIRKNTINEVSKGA
Description: as §1

[7] = tested on: T7, Rep nickase domain of porcine circovirus 2
T7 sequence (protein, residues 2-116, tag omitted): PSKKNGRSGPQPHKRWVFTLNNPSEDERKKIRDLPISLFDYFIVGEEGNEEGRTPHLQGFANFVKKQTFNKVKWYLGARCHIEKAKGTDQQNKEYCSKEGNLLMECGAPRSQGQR
Description: as §1

[8] = tested on: T8, Rep nickase domain of tomato golden mosaic virus
T8 sequence (protein, residues 1-124, tag omitted): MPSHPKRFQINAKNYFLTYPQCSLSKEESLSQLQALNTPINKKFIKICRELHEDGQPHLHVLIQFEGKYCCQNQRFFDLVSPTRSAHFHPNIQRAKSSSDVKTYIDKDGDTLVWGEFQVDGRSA
Description: as §1

[9] = tested on: T9, Rep nickase domain of tomato yellow leaf curl virus
T9 sequence (protein, residues 1-136, tag omitted): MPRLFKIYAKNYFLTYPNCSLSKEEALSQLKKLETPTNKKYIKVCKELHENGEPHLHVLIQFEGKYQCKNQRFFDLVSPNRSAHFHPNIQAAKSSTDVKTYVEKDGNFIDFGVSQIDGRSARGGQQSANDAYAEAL
Description: as §1

[10] = tested on: T10, Rep nickase domain of wheat dwarf virus
T10 sequence (protein, residues 1-137, tag omitted): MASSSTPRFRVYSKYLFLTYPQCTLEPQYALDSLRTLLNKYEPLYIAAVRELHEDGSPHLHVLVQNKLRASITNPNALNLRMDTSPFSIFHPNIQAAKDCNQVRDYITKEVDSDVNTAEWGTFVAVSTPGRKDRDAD
Description: as §1

| Sequence | uncleaved DNA left (log2) [1] | uncleaved DNA left (log2) [2] | uncleaved DNA left (log2) [3] | uncleaved DNA left (log2) [4] | uncleaved DNA left (log2) [5] | uncleaved DNA left (log2) [6] | uncleaved DNA left (log2) [7] | uncleaved DNA left (log2) [8] | uncleaved DNA left (log2) [9] | uncleaved DNA left (log2) [10] |
| --- | --- | --- | --- | --- | --- | --- | --- | --- | --- | --- |
| CGAGTGA | 0.283 | 0.114 | 0.256 | 0.777 | 0.263 | 1.62 | 0.236 | 0.103 | 0.0336 | 0.248 |
| TATGCCG | 0.0438 | -0.128 | -0.981 | 0.187 | -0.00637 | -0.929 | -0.0262 | -0.231 | -0.0406 | -0.125 |
| CTCTATT | -3.2 | -2.82 | -1.68 | -3.16 | -0.17 | -1.16 | -3.47 | -0.372 | -0.0483 | -0.556 |
| CGTTTCT | -1.15 | -0.0497 | 0.124 | -1.17 | -0.0524 | -0.138 | -1.52 | 0.0303 | 0.0931 | 0.0957 |
| TGCTAGG | 0.0791 | 0.126 | 0.448 | 1.08 | -0.00117 | 1.26 | 0.0642 | 0.123 | -0.0723 | 0.134 |
| AGCTTGG | -0.0724 | 0.0363 | 0.126 | 0.998 | -0.0604 | 0.752 | -0.0459 | 0.0541 | -0.0398 | -0.0619 |
| GAACCAA | -0.0198 | 0.0371 | 0.202 | 0.174 | 0.0247 | 0.642 | -0.0273 | 0.0708 | 0.0591 | 0.18 |
| CTATGGT | -0.401 | -0.0565 | -0.33 | -0.154 | -0.0745 | 0.424 | -0.968 | -0.128 | -0.0133 | -0.0314 |
| GAAGAGA | 0.0999 | 0.00999 | 0.632 | 1.14 | 0.0485 | 1.17 | 0.218 | 0.0807 | 0.0585 | 0.194 |
| CACCTTT | -0.184 | -0.234 | -0.456 | -2.52 | 0.021 | -0.658 | -2.58 | -0.237 | -0.157 | -0.203 |
| ATGTCGG | 0.124 | 0.0749 | 0.463 | 1.13 | -0.0514 | 1.26 | 0.184 | 0.0744 | -0.0989 | 0.0657 |
| GGACATG | 0.0195 | -0.0753 | 0.813 | 1.87 | 0.0734 | 2.18 | 0.164 | -0.11 | -0.0133 | 0.105 |
| CTACAGT | 0.054 | 0.0213 | -0.409 | -2.23 | 0.0866 | -0.931 | -0.11 | -0.0686 | 0.0162 | -0.0747 |
| CTAATTC | -0.106 | -0.113 | 0.32 | -0.109 | -0.0543 | -0.935 | -0.0729 | -0.00775 | -0.0312 | 0.022 |
| GGCACCA | 0.0705 | 0.0937 | 0.617 | 1.2 | -0.0124 | 1.8 | 0.0991 | 0.0511 | 0.0945 | 0.143 |
| GTCTCAA | 0.186 | 0.246 | 0.46 | 0.955 | 0.214 | 1.87 | 0.15 | 0.216 | 0.124 | 0.151 |
| GGCAGGC | 0.072 | 0.00125 | 0.561 | 1.21 | -0.0801 | 1.39 | 0.128 | -0.0749 | 0.0384 | 0.0675 |
| ACGTGGT | -0.342 | -0.214 | -0.436 | -0.696 | -0.192 | -0.584 | -2.35 | -0.152 | -0.164 | -0.261 |
| CAACTAC | -0.0554 | -0.185 | -0.442 | -2.5 | -0.0455 | -1 | -0.05 | -0.093 | -0.189 | -0.0681 |
| ACAAGTA | 0.0539 | -0.00766 | -0.246 | -1.34 | -0.00646 | -0.891 | -0.0909 | 0.0849 | -0.0647 | 0.0118 |
| TACTCTG | 0.0291 | 0.0602 | 0.0128 | -0.14 | 0.083 | 0.0205 | -0.177 | -0.0833 | 0.0135 | -0.00144 |
| ATCTGCA | -0.0489 | -0.198 | -0.534 | -0.747 | 0.0171 | -0.999 | -0.076 | -0.0959 | -0.0659 | -0.119 |
| CTTGTGC | 0.12 | -0.161 | -0.738 | -0.614 | 0.0925 | -1.03 | 0.108 | -0.105 | 0.0844 | -0.0329 |
| GTGGCCC | -0.00388 | 0.026 | 0.296 | 0.932 | -0.127 | 1.75 | -0.12 | 0.109 | 0.0405 | 0.0356 |
| ACACTAC | 0.0138 | 0.0978 | -0.384 | -2.03 | 0.104 | -0.831 | 0.165 | -0.00673 | -0.000648 | -0.0862 |
| TCGGCTT | 0.213 | 0.0171 | 0.0888 | -0.213 | -0.0177 | 0.942 | -0.0292 | 0.0702 | -0.134 | -0.0373 |
| TATTCGC | -0.239 | -0.228 | -0.749 | -0.788 | 0.0038 | -1.16 | 0.00227 | -0.113 | -0.053 | -0.121 |
| TAAGTGA | 0.0504 | -0.0535 | -0.265 | -0.831 | 0.0178 | -0.622 | 0.0744 | -0.0284 | -0.0505 | 0.00538 |
| TACCGGT | 0.061 | -0.034 | 0.265 | -0.00328 | -0.0367 | 0.741 | -0.164 | 0.00349 | -0.0294 | -0.0377 |
| ATTCGCA | -0.076 | -0.0711 | -0.671 | -1.24 | -0.0238 | -1.15 | -0.122 | -0.196 | -0.071 | -0.0794 |
